The test deals with U2OS. The test is described as follows: Cell Painting induction (percent of morphological features significantly changed vs DMSO); higher = stronger morphological change. The conditions noted are these: 10 µM, 20 h. Here is the method: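 Cell Painting assay in U2OS cells: compounds at 10 µM for 20 h, six dyes, 579 robust CellProfiler features as Z-scores vs DMSO median (MAD). Induction is the % of significantly changed features (active if ≥5%); relative cell count is in % of DMSO. The primary run holds DCM compounds preselected for induction ≥10%; the confirmation repeat defines active compounds (370 of 549). Replicate agreement is low, attributed to precipitation.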

Setting [1] is: run: primary screen (compounds selected for induction >=10%).

This is one part of the list. Single values of this set are uncertain.
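Further: stains mark DNA, RNA and nucleoli, ER, actin, Golgi, plasma membrane and mitochondria, read by high-content imaging, with DMSO controls at matching solvent concentration.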

With `CCOc1ccc(N(CC(=O)N2CCN(c3ccccc3F)CC2)S(=O)(=O)c2c(C)noc2C)cc1`, the “Cell Painting induction” value reads like this: (run: confirmation repeat) active: 8.3%; under setting [1], 12.8%.
The matching figures for `Cc1cc(-c2ccc(C)c(S(=O)(=O)NCC3CCN(Cc4cccc(F)c4)CC3)c2)on1`: active: 47.5% and 43.9%.
For `O=C(c1ccc2c(c1)N(Cc1cccc(Cl)c1)C(=O)c1ccccc1S2=O)N1Cc2ccccc2C1` (stereo unspecified), in that order: active: 15.7% and 15%.
The matching figures for `CNC(=S)N1CCc2cc(OC)c(OC)cc2C1COc1ccc(F)cc1` (stereo unspecified): active: 15.9% and 14.7%.
On to `Cc1cccc(N2CCN(C(=O)c3cccc(N4CCCC4=O)c3)CC2)c1C`, for which the “Cell Painting induction” value (run: confirmation repeat) is active: 21.6% and the “Cell Painting induction” value under setting [1] was 34.5%.
The matching figures for `Cc1ccc(-c2nn(-c3cccc(Cl)c3)c3c2cnc2ccccc23)cc1`: inactive: 0.5% and 19.3%.
As to `CCOc1ccc(S(=O)(=O)NCc2cccnc2)cc1NC(=O)c1ccccc1`, the “Cell Painting induction” value by setting is: (run: confirmation repeat) active: 27.5%; under setting [1], 34.5%.
For `CCOc1cc(C(=O)Nc2cc3c(cc2N2CCOCC2)n(C)c(=O)n3C)cc(OCC)c1OCC`, in that order: active: 12.1% and 17.1%.
Regarding `Cc1nc2sccn2c(=O)c1S(=O)(=O)NCC1CCN(Cc2ccc(Cl)cc2)CC1`, the “Cell Painting induction” value (run: confirmation repeat) is active: 44.2% and the “Cell Painting induction” value under setting [1] was found to be 39.7%.
The matching figures for `Cc1cccc2sc(N(CCCN(C)C)C(=O)c3cc4ccccc4oc3=O)nc12`: active: 49.2% and 43.9%.
For `CCOC(=O)c1cn2nc(-c3ccc(OCC)cc3)cc2nc1C1CCN(C(=O)OC(C)(C)C)CC1`, the “Cell Painting induction” value was inactive: 2.1% (run: confirmation repeat) and 30.1% under setting [1].
For the compound `CC1CCCN(C(=O)c2ccc3c(=O)n4nc(Nc5ccccc5)sc4nc3c2)C1` (stereo unspecified), the “Cell Painting induction” value is inactive: 0.9% (run: confirmation repeat) and 14.7% under setting [1].
As for `Cc1ccc(S(=O)(=O)NCC(c2ccccc2)N2CCCCC2)cc1` (stereo unspecified), the “Cell Painting induction” value is inactive: 2.2% (run: confirmation repeat) and 14.5% under setting [1].
The matching figures for `CCOC(=O)c1ccc(NC(=O)C2CCN(S(=O)(=O)c3ccc4c(c3)CC(C)N4C(C)=O)CC2)cc1` (stereo unspecified): active: 15% and 39.7%.
As to `CC(C)OC(=O)Nc1ccc2c(c1)N(C(=O)CCN1CCOCC1)c1ccccc1CC2`, the “Cell Painting induction” value reads like this: (run: confirmation repeat) active: 8.3%; under setting [1], 17.4%.
As to `CN(C)S(=O)(=O)c1ccc2c(c1)C(=NNC(N)=O)c1cc(S(=O)(=O)N(C)C)ccc1-2`, the “Cell Painting induction” value reads like this: (run: confirmation repeat) active: 23.5%; under setting [1], 10.5%.
The matching figures for `CCc1ccc(NC(=O)NCCN2CCN(c3ccc(OC)cc3)CC2)cc1`: active: 37.3% and 49.6%.
With `COc1cc(/C=C2/SC(=S)N(Cc3ccccc3)C2=O)ccc1OS(C)(=O)=O`, the “Cell Painting induction” value is, setting by setting: (run: confirmation repeat) active: 40.6%; under setting [1], 43.5%.
The matching figures for `O=C(NCCCN(Cc1ccco1)C1CCCC1)c1noc2c1COc1ccccc1-2`: active: 24.2% and 26.9%.
Regarding `CCOC(=O)c1c(CN2CCOCC2)n(-c2ccccc2)c2cc(Br)c(O)c(CN(C)C)c12`, the “Cell Painting induction” value was active: 11.4% (run: confirmation repeat) and 18.1% under setting [1].
Consider `COc1cccc(N2CCN(C(=O)CN(c3cc(C)cc(C)c3)S(=O)(=O)c3c(C)noc3C)CC2)c1`, for which the “Cell Painting induction” value (run: confirmation repeat) is inactive: 4.1% and the “Cell Painting induction” value under setting [1] amounted to 15.4%.
Regarding `O=C(c1ccc(Cn2c(=S)[nH]c3cc4c(cc3c2=O)OCO4)cc1)N1CCN(c2ccccc2)CC1`, the “Cell Painting induction” value reads like this: (run: confirmation repeat) active: 47.8%; under setting [1], 29.7%.
Regarding `COc1ccc(N2CCN(C(=O)c3sc4ncn(CC(=O)N5CCCCC5C)c(=O)c4c3C)CC2)cc1` (stereo unspecified), the “Cell Painting induction” value runs as follows: (run: confirmation repeat) active: 28.5%; under setting [1], 13.5%.
The matching figures for `CC(=O)c1ccc(N2CCN(S(=O)(=O)c3ccccc3)CC2)c(F)c1`: active: 11.7% and 14%.
The matching figures for `Cc1ccc2nc(N3CCC(C(=O)NC4CCCCC4)CC3)sc2c1`: active: 10.4% and 35.1%.
`CC1CC(C)CN(CCCNC(=O)c2ccc(CNS(=O)(=O)c3ccc(F)cc3)cc2)C1` (stereo unspecified): the “Cell Painting induction” value runs as follows: (run: confirmation repeat) active: 17.3%; under setting [1], 32.3%.
The matching figures for `CCC1CCCCN1CCCNC(=O)c1csc2c1CCCCC2` (stereo unspecified): active: 6.4% and 14.3%.
The matching figures for `COc1cccc(C2=CC(c3cccc(OC)c3OC(F)F)n3nnnc3N2)c1` (stereo unspecified): active: 18.1% and 23.8%.
In the case of `CC(C)c1ccc(NC(=O)C2CCN(S(=O)(=O)c3ccc4c(c3)NC(=O)CO4)CC2)cc1`, the “Cell Painting induction” value was active: 20.2% (run: confirmation repeat) and 20.6% under setting [1].
For `O=S(=O)(c1ccccc1)c1nc(-c2ccc(F)cc2)oc1NCC1CCCO1` (stereo unspecified), in that order: active: 25.2% and 18.3%.
Consider `CCN(C(=O)c1cc2c(O)nc3ccc(C)cc3c2s1)c1ccc(OC)cc1`, for which the “Cell Painting induction” value is active: 13% (run: confirmation repeat) and 46.8% under setting [1].
In the case of `COc1ccc(N2CCN(C(=O)c3ccc4c(Cl)c5c(nc4c3)CCCC5)CC2)cc1`, the “Cell Painting induction” value is inactive: 0.9% (run: confirmation repeat) and 20% under setting [1].
With `Cc1ccc(C(=O)NNC(=O)C2CCN(C(=O)OC(C)(C)C)CC2)cc1`, the “Cell Painting induction” value is inactive: 4.8% (run: confirmation repeat) and 10.2% under setting [1].
On to `CCOc1cc(CN2CCN(Cc3ccc(Cl)cc3)CC2)ccc1OC`, for which the “Cell Painting induction” value (run: confirmation repeat) was active: 26.4% and the “Cell Painting induction” value under setting [1] was found to be 33.2%.
The matching figures for `COc1ccc(-c2c(C)nn3c(N4CCN(c5cccc(Cl)c5)CC4)cc(C)nc23)cc1OC`: active: 16.6% and 28%.
For `Cc1noc(C)c1S(=O)(=O)N(CC(=O)N1CCc2ccccc21)c1ccc(C(C)C)cc1`, in that order: active: 9.3% and 13.1%.
For `COc1ccc(S(=O)(=O)Nc2cc3[nH]c(=O)oc3cc2C)cc1`, in that order: active: 9.2% and 12.1%.
As to `COc1cccc(-c2nn(-c3ccccc3)c3c2cnc2ccc(F)cc23)c1`, the “Cell Painting induction” value is inactive: 0.5% (run: confirmation repeat) and 29.4% under setting [1].
The matching figures for `COc1cc(NC(=O)CCCSc2nc(-c3ccco3)cc(C(F)(F)F)n2)cc(OC)c1OC`: active: 7.9% and 26.6%.
The matching figures for `COc1ccccc1N(CC(O)Cn1c(C)nc2ccccc21)S(=O)(=O)c1ccccc1` (stereo unspecified): inactive: 1% and 13.8%.
For the compound `COc1cccc(NC(=O)c2cccc(C(=O)Nc3cccc(OC)c3)c2)c1`, the “Cell Painting induction” value runs as follows: (run: confirmation repeat) active: 21.6%; under setting [1], 22.5%.
On to `COC(=O)c1ccc(C(=O)OC)c(NC(=S)N2CCN(c3cc(Cl)ccc3C)CC2)c1`, for which the “Cell Painting induction” value runs as follows: (run: confirmation repeat) active: 10.5%; under setting [1], 13.5%.
`CCN(CC)Cc1nc(O)c2c(n1)-c1ccccc1CC2(CC)CC`: the “Cell Painting induction” value was active: 16.6% (run: confirmation repeat) and 31.8% under setting [1].
